Source: the supplement of paper PMC12217912
The other results are listed elsewhere or left out. The full chains were built here from the parent and the listed change. Values near 0.05 are background.

B1: TEV protease; numbered along this chain (parent)
chain: MGESLFKGPRDYNPISSSICHLTNESDGHTTSLYGIGFGPFIITNKHLFRRNNGTLVVQSLHGVFKVKDTTTLQQHLVDGRDMIIIRMPKDFPPFPQKLKFREPQREERICLVTTNFQTKSMSSMVSDTSCTFPSGDGIFWKHWIQTKDGQCGSPLVSTRDGFIVGIHSASNFTNTNNYFTSVPKNFMELLTNQEAQQWVSGWRLNADSVLWGGHKVFMVKPEEPFQPVKEATQL

Variants of: B1
Experiment: raw area under fraction-flipped curve 0-4 h after induction (AUC4h, not background-subtracted), DNA-recorder readout of cleavage of the substrate (dimensionless); higher = more cleavage of the substrate by the protease variant
Conditions: temperature: 34 °C; time window: 0-4 h after rhamnose induction
Method: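 In vivo DNA recorder in E. coli TOP10(DE3) ΔrhaA at 34 °C. Each TEVp single-site mutant (parent TEVp 0) is paired with a single-site variant of the 7-mer TEVs (canonical ENLYFQ|S). The substrate sits between flexible linkers in a Bxb1-sfGFP-TEVs-SsrA fusion, so cleavage stabilises Bxb1 and speeds flipping of a recombination array, read by NGS. The value is the raw area under the fraction-flipped curve over 0-4 h after rhamnose induction (AUC4h), with ≥20 reads per time point. It is not background-subtracted; inactive controls average about 0.047.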
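Further: Bxb1 expression induced with 0.2% (w/v) L-rhamnose at OD600 near 0.5, cultures sampled hourly, flipped fraction per protease–substrate barcode pair counted by paired-end Illumina sequencing.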

## N45D
  area with substrate ENLYAQS: 0.0635
  area with substrate ENLYDQS: 0.064
  area with substrate ENLYEQS: 0.0562
  area with substrate ENLYGQS: 0.054
  area with substrate ENLYHQS: 0.0543
  area with substrate ENLYIQS: 0.0504
  area with substrate ENLYKQS: 0.0616
  area with substrate ENLYLQS: 0.0594
  area with substrate ENLYNQS: 0.0606
  area with substrate ENLYPQS: 0.0559
  area with substrate ENLYQQS: 0.0644
  area with substrate ENLYRQS: 0.0605
  area with substrate ENLYSQS: 0.0567
  area with substrate ENLYTQS: 0.065
  area with substrate ENLYVQS: 0.0611
  area with substrate ENLYWQS: 0.0545
  area with substrate ENLYYQS: 0.0701

## K46E
  area with substrate ENLYAQS: 0.0638
  area with substrate ENLYDQS: 0.0586
  area with substrate ENLYEQS: 0.0624
  area with substrate ENLYGQS: 0.0552
  area with substrate ENLYHQS: 0.0546
  area with substrate ENLYIQS: 0.0666
  area with substrate ENLYKQS: 0.0382
  area with substrate ENLYLQS: 0.0648
  area with substrate ENLYMQS: 0.056
  area with substrate ENLYNQS: 0.0569
  area with substrate ENLYPQS: 0.061
  area with substrate ENLYQQS: 0.0499
  area with substrate ENLYRQS: 0.0588
  area with substrate ENLYSQS: 0.0623
  area with substrate ENLYWQS: 0.0553
  area with substrate ENLYYQS: 0.0547

## K46F
  area with substrate ENLYAQS: 0.0602
  area with substrate ENLYDQS: 0.0713
  area with substrate ENLYEQS: 0.0718
  area with substrate ENLYGQS: 0.0692
  area with substrate ENLYHQS: 0.0581
  area with substrate ENLYIQS: 0.0561
  area with substrate ENLYKQS: 0.0624
  area with substrate ENLYLQS: 0.0623
  area with substrate ENLYPQS: 0.0607
  area with substrate ENLYRQS: 0.0529
  area with substrate ENLYSQS: 0.054
  area with substrate ENLYWQS: 0.0563

## K46R
  area with substrate ENLYAQS: 0.0741
  area with substrate ENLYCQS: 0.0804
  area with substrate ENLYDQS: 0.0478
  area with substrate ENLYEQS: 0.0701
  area with substrate ENLYGQS: 0.0696
  area with substrate ENLYHQS: 0.069
  area with substrate ENLYIQS: 0.123
  area with substrate ENLYKQS: 0.0585
  area with substrate ENLYLQS: 0.078
  area with substrate ENLYMQS: 0.0624
  area with substrate ENLYNQS: 0.0619
  area with substrate ENLYPQS: 0.0575
  area with substrate ENLYQQS: 0.0555
  area with substrate ENLYRQS: 0.0591
  area with substrate ENLYSQS: 0.0543
  area with substrate ENLYTQS: 0.0826
  area with substrate ENLYYQS: 0.0681

## H47A
  area with substrate ENLYAQS: 0.0568
  area with substrate ENLYEQS: 0.0741
  area with substrate ENLYHQS: 0.0462
  area with substrate ENLYKQS: 0.0282
  area with substrate ENLYMQS: 0.0592
  area with substrate ENLYNQS: 0.0611
  area with substrate ENLYPQS: 0.0852
  area with substrate ENLYQQS: 0.0644
  area with substrate ENLYSQS: 0.0669
  area with substrate ENLYTQS: 0.0529
  area with substrate ENLYWQS: 0.0452
  area with substrate ENLYYQS: 0.0731

## H47R
  area with substrate ENLYAQS: 0.0665
  area with substrate ENLYDQS: 0.0578
  area with substrate ENLYEQS: 0.0671
  area with substrate ENLYHQS: 0.0883
  area with substrate ENLYIQS: 0.0616
  area with substrate ENLYKQS: 0.0466
  area with substrate ENLYMQS: 0.0557
  area with substrate ENLYNQS: 0.0732
  area with substrate ENLYPQS: 0.0744
  area with substrate ENLYQQS: 0.0663
  area with substrate ENLYRQS: 0.0594
  area with substrate ENLYSQS: 0.112
  area with substrate ENLYTQS: 0.0439
  area with substrate ENLYVQS: 0.0536
  area with substrate ENLYWQS: 0.0633
  area with substrate ENLYYQS: 0.219

## L48H
  area with substrate ENLYAQS: 0.0617
  area with substrate ENLYDQS: 0.0591
  area with substrate ENLYEQS: 0.0452
  area with substrate ENLYGQS: 0.0595
  area with substrate ENLYHQS: 0.0622
  area with substrate ENLYIQS: 0.0697
  area with substrate ENLYKQS: 0.0582
  area with substrate ENLYMQS: 0.0578
  area with substrate ENLYNQS: 0.0464
  area with substrate ENLYPQS: 0.0543
  area with substrate ENLYQQS: 0.0516
  area with substrate ENLYSQS: 0.0544
  area with substrate ENLYTQS: 0.062

## F49H
  area with substrate ENLYAQS: 0.037
  area with substrate ENLYCQS: 0.065
  area with substrate ENLYDQS: 0.0531
  area with substrate ENLYHQS: 0.0574
  area with substrate ENLYIQS: 0.0567
  area with substrate ENLYKQS: 0.0533
  area with substrate ENLYLQS: 0.0514
  area with substrate ENLYMQS: 0.0542
  area with substrate ENLYNQS: 0.0623
  area with substrate ENLYPQS: 0.0605
  area with substrate ENLYRQS: 0.0599
  area with substrate ENLYSQS: 0.0612
  area with substrate ENLYVQS: 0.0669
  area with substrate ENLYWQS: 0.057
  area with substrate ENLYYQS: 0.045

## R51C
  area with substrate ENLYAQS: 0.0853
  area with substrate ENLYCQS: 0.0897
  area with substrate ENLYDQS: 0.064
  area with substrate ENLYEQS: 0.0591
  area with substrate ENLYGQS: 0.0619
  area with substrate ENLYHQS: 0.0729
  area with substrate ENLYIQS: 0.136
  area with substrate ENLYKQS: 0.0641
  area with substrate ENLYNQS: 0.0685
  area with substrate ENLYPQS: 0.0754
  area with substrate ENLYQQS: 0.0533
  area with substrate ENLYRQS: 0.0704
  area with substrate ENLYSQS: 0.0465
  area with substrate ENLYVQS: 0.146
  area with substrate ENLYWQS: 0.0822

## N52M
  area with substrate ENLYAQS: 0.0706
  area with substrate ENLYDQS: 0.0512
  area with substrate ENLYEQS: 0.067
  area with substrate ENLYHQS: 0.062
  area with substrate ENLYIQS: 0.0812
  area with substrate ENLYKQS: 0.0106
  area with substrate ENLYLQS: 0.0612
  area with substrate ENLYNQS: 0.058
  area with substrate ENLYRQS: 0.0653

## N52T
  area with substrate ENLYAQS: 0.064
  area with substrate ENLYDQS: 0.0544
  area with substrate ENLYEQS: 0.0522
  area with substrate ENLYGQS: 0.0503
  area with substrate ENLYHQS: 0.0476
  area with substrate ENLYIQS: 0.0953
  area with substrate ENLYKQS: 0.0173
  area with substrate ENLYMQS: 0.068
  area with substrate ENLYNQS: 0.0595
  area with substrate ENLYPQS: 0.0696
  area with substrate ENLYQQS: 0.0564
  area with substrate ENLYRQS: 0.0712
  area with substrate ENLYTQS: 0.0518
  area with substrate ENLYVQS: 0.0934
  area with substrate ENLYWQS: 0.0646

## V57M
  area with substrate ENLYAQS: 0.0687
  area with substrate ENLYCQS: 0.123
  area with substrate ENLYDQS: 0.0979
  area with substrate ENLYEQS: 0.0588
  area with substrate ENLYGQS: 0.0791
  area with substrate ENLYHQS: 0.0735
  area with substrate ENLYIQS: 0.0843
  area with substrate ENLYKQS: 0.0646
  area with substrate ENLYLQS: 0.0875
  area with substrate ENLYMQS: 0.0818
  area with substrate ENLYNQS: 0.0556
  area with substrate ENLYQQS: 0.0686
  area with substrate ENLYSQS: 0.0844
  area with substrate ENLYWQS: 0.0803
